The list shows a part of the results. Single values are uncertain, as repeats are few or missing.
Key:
Assay in all cases: cell count relative to DMSO control; melanoma cells; higher = more viable cells
Settings in all cases: library dose: low library concentration; 72 h
WM115 = test system: WM115
WM1716 = test system: WM1716
WM1745 = test system: WM1745
WM3526 = test system: WM3526
WM3619 = test system: WM3619
WM451Lu = test system: WM451Lu
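Note: cell number obtained by counting DAPI-stained nuclei in high-throughput microscope images with image analysis software, screen run in 1,536-well plates.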

Compound	cell count (WM115) [%]	cell count (WM1716) [%]	cell count (WM1745) [%]	cell count (WM3526) [%]	cell count (WM3619) [%]	cell count (WM451Lu) [%]
CN1CCN(c2ccc3nc(-c4c(N)c5c(F)cccc5[nH]c4=O)[nH]c3c2)CC1 [Dovitinib] + O=C(O)C(=O)Nc1sc2c(c1C(=O)O)CCNC2 [TCS401] (first compound 0.1 µM, partner dose 1.66667 µM)	95.3	105	85.8	106	97.3	101
C[C@@H](Oc1cc(-c2cnn(C3CCNCC3)c2)cnc1N)c1c(Cl)ccc(F)c1Cl [Crizotinib] + COc1cc2ncnc(Nc3ccc(Oc4ccccc4)cc3)c2cc1OC [SrcI1] (first compound 0.2 µM, partner dose 2 µM)	93.7	124	91.7	97.3	76.9	113
CNC(=O)c1cc(Oc2ccc(NC(=O)Nc3ccc(Cl)c(C(F)(F)F)c3)cc2)ccn1 [sorafenib] + Oc1cc(-c2nc(-c3ccccc3)[nH]c2-c2ccncc2)ccc1Cl [L779450] (first compound 0.4 µM, partner dose 0.2 µM)	80.7	96.1	79.3	71.7	87.2	97.6
CS(=O)(=O)CCNCc1ccc(-c2ccc3ncnc(Nc4ccc(OCc5cccc(F)c5)c(Cl)c4)c3c2)o1 [lapatinib] + CC(C)(C)c1cnc(CSc2cnc(NC(=O)C3CCNCC3)s2)o1 [SNS-032] (first compound 0.8 µM, partner dose 0.01 µM)	104	114	94.3	97.8	176	99.3
CS(=O)(=O)CCNCc1ccc(-c2ccc3ncnc(Nc4ccc(OCc5cccc(F)c5)c(Cl)c4)c3c2)o1 [lapatinib] + O=C(Nc1ccccc1)c1cc([N+](=O)[O-])ccc1Cl [GW9662] (first compound 0.8 µM, partner dose 2 µM)	110	102	82.6	114	102	93.9
C[C@@H](Oc1cc(-c2cnn(C3CCNCC3)c2)cnc1N)c1c(Cl)ccc(F)c1Cl [Crizotinib] + Oc1nc(-c2ccc(C(F)(F)F)cc2)nc2c1CSCC2 [XAV939] (first compound 0.2 µM, partner dose 2 µM)	88.5	62.7	89.3	123	90.8	93.1
C[C@@H](Oc1cc(-c2cnn(C3CCNCC3)c2)cnc1N)c1c(Cl)ccc(F)c1Cl [Crizotinib] + NC(=O)Nc1cc(-c2cccc(F)c2)sc1C(=O)N[C@H]1CCCNC1 [AZD7762] (first compound 0.2 µM, partner dose 0.02 µM)	74.7	112	108	88.9	55.9	92.9
CN1CCN(c2ccc3nc(-c4c(N)c5c(F)cccc5[nH]c4=O)[nH]c3c2)CC1 [Dovitinib] + C[C@@H]1CCN(C(=O)CC#N)C[C@@H]1N(C)c1ncnc2[nH]ccc12 [CP690550] (first compound 0.1 µM, partner dose 1 µM)	92.2	103	84.6	130	99.6	92.8
CN1CCN(c2ccc3nc(-c4c(N)c5c(F)cccc5[nH]c4=O)[nH]c3c2)CC1 [Dovitinib] + CN(C)S(=O)(=O)c1ccc2c(c1)/C(=C/c1cc3c([nH]1)CCCC3)C(=O)N2 [SU6656] (first compound 0.1 µM, partner dose 0.4 µM)	74.4	83.4	69	68	129	91.7
CN1CCN(c2ccc3nc(-c4c(N)c5c(F)cccc5[nH]c4=O)[nH]c3c2)CC1 [Dovitinib] + C=CCn1c(=O)c2cnc(Nc3ccc(N4CCN(C)CC4)cc3)nc2n1-c1cccc(C(C)(C)O)n1 [MK1775] (first compound 0.1 µM, partner dose 0.02 µM)	83.8	90.7	67.4	86.9	77.6	82.9
CNC(=O)c1cc(Oc2ccc(NC(=O)Nc3ccc(Cl)c(C(F)(F)F)c3)cc2)ccn1 [sorafenib] + CCN(CC)CCCCNc1ncc2cc(-c3cc(OC)cc(OC)c3)c(NC(=O)NC(C)(C)C)nc2n1 [PD173074] (first compound 0.4 µM, partner dose 0.1 µM)	100	86.9	99.5	107	88.4	117
C[C@@H](Oc1cc(-c2cnn(C3CCNCC3)c2)cnc1N)c1c(Cl)ccc(F)c1Cl [Crizotinib] + COc1ccc(COc2ccc(Cc3cnc(N)nc3N)cc2OC)cc1 [GW2580] (first compound 0.2 µM, partner dose 1 µM)	98.1	113	100	76.7	90.7	99.2
CNC(=O)c1cc(Oc2ccc(NC(=O)Nc3ccc(Cl)c(C(F)(F)F)c3)cc2)ccn1 [sorafenib] + CN(C)S(=O)(=O)c1ccc2c(c1)/C(=C/c1cc3c([nH]1)CCCC3)C(=O)N2 [SU6656] (first compound 0.4 µM, partner dose 0.4 µM)	80.8	126	105	90.4	118	90.5
CNC(=O)c1cc(Oc2ccc(NC(=O)Nc3ccc(Cl)c(C(F)(F)F)c3)cc2)ccn1 [sorafenib] + COc1cc2ncnc(Nc3ccc(Oc4ccccc4)cc3)c2cc1OC [SrcI1] (first compound 0.4 µM, partner dose 2 µM)	99.5	99.2	73.3	112	98.7	120
C=CCNC1=C2C[C@@H](C)C[C@H](OC)[C@H](O)[C@@H](C)/C=C(\C)[C@H](OC(N)=O)[C@@H](OC)/C=C\C=C(/C)C(=O)NC(=CC1=O)C2=O [Tanespimycin] + Cn1cc(/C=C2\C(=O)Nc3cccnc32)c2ccccc21 [GW441756] (first compound 0.002 µM, partner dose 0.4 µM)	87.4	106	85.3	84.6	77.4	113
C=CCNC1=C2C[C@@H](C)C[C@H](OC)[C@H](O)[C@@H](C)/C=C(\C)[C@H](OC(N)=O)[C@@H](OC)/C=C\C=C(/C)C(=O)NC(=CC1=O)C2=O [Tanespimycin] + c1cc(-c2cnn3cc(-c4ccc(OCCN5CCCCC5)cc4)cnc23)ccn1 [Dorsomorphin] (first compound 0.002 µM, partner dose 0.4 µM)	88.2	96.2	95.2	103	85.6	93.2
CNC(=O)c1cc(Oc2ccc(NC(=O)Nc3ccc(Cl)c(C(F)(F)F)c3)cc2)ccn1 [sorafenib] + COc1ccc(COc2ccc(Cc3cnc(N)nc3N)cc2OC)cc1 [GW2580] (first compound 0.4 µM, partner dose 1 µM)	99.9	99.7	99.6	104	96.1	120
C[C@@H](Oc1cc(-c2cnn(C3CCNCC3)c2)cnc1N)c1c(Cl)ccc(F)c1Cl [Crizotinib] + Cn1c(Nc2ccc(C(F)(F)F)cc2)nc2cc(Oc3ccnc(-c4ncc(C(F)(F)F)[nH]4)c3)ccc21 [CHIR265] (first compound 0.2 µM, partner dose 0.08 µM)	71.3	85.9	78.2	73.9	84.2	106
C[C@@H](Oc1cc(-c2cnn(C3CCNCC3)c2)cnc1N)c1c(Cl)ccc(F)c1Cl [Crizotinib] + O=c1cc(-c2cccc3c2Sc2ccccc2S3)oc(N2CCOCC2)c1 [KU55933] (first compound 0.2 µM, partner dose 1 µM)	100	107	82.7	86.4	114	96.9
CS(=O)(=O)CCNCc1ccc(-c2ccc3ncnc(Nc4ccc(OCc5cccc(F)c5)c(Cl)c4)c3c2)o1 [lapatinib] + CCCS(=O)(=O)Nc1ccc(F)c(C(=O)c2c[nH]c3ncc(Cl)cc23)c1F [PLX4720] (first compound 0.8 µM, partner dose 0.08 µM)	95.6	108	96.4	72	97.1	120
CS(=O)(=O)CCNCc1ccc(-c2ccc3ncnc(Nc4ccc(OCc5cccc(F)c5)c(Cl)c4)c3c2)o1 [lapatinib] + NCC(=O)Nc1ccc(-n2nc(C(F)(F)F)cc2-c2ccc3c(ccc4ccccc43)c2)cc1 [OSU03012] (first compound 0.8 µM, partner dose 1 µM)	88	122	86.7	59.8	142	61
C[C@@H](Oc1cc(-c2cnn(C3CCNCC3)c2)cnc1N)c1c(Cl)ccc(F)c1Cl [Crizotinib] + COCC[n+]1c2c(n(Cc3cnccn3)c1C)C(=O)c1ccccc1C2=O [YM155] (first compound 0.2 µM, partner dose 0.0004 µM)	84.3	113	90.7	104	105	89.4
CNC(=O)c1cc(Oc2ccc(NC(=O)Nc3ccc(Cl)c(C(F)(F)F)c3)cc2)ccn1 [sorafenib] + Cc1nc(Nc2ncc(C(=O)Nc3c(C)cccc3Cl)s2)cc(N2CCN(CCO)CC2)n1 [dasatanib] (first compound 0.4 µM, partner dose 0.004 µM)	83.8	74.9	70.1	101	91.4	80.6
CNC(=O)c1cc(Oc2ccc(NC(=O)Nc3ccc(Cl)c(C(F)(F)F)c3)cc2)ccn1 [sorafenib] + Oc1nc(-c2ccc(C(F)(F)F)cc2)nc2c1CSCC2 [XAV939] (first compound 0.4 µM, partner dose 2 µM)	95.4	63.3	87.5	108	116	133
C=CCNC1=C2C[C@@H](C)C[C@H](OC)[C@H](O)[C@@H](C)/C=C(\C)[C@H](OC(N)=O)[C@@H](OC)/C=C\C=C(/C)C(=O)NC(=CC1=O)C2=O [Tanespimycin] + COc1ccc(Cl)c(Nc2nc3ccccc3nc2NS(=O)(=O)c2cccc(NC(=O)C(C)(C)N)c2)c1 [XL147] (first compound 0.002 µM, partner dose 0.8 µM)	87.4	90.8	86.7	74.5	61.8	90.5
C=CCNC1=C2C[C@@H](C)C[C@H](OC)[C@H](O)[C@@H](C)/C=C(\C)[C@H](OC(N)=O)[C@@H](OC)/C=C\C=C(/C)C(=O)NC(=CC1=O)C2=O [Tanespimycin] + O=C(O)c1ccc(-c2c[nH]c3ncc(-c4ccccc4)cc23)cc1C1CCCC1 [GSK650394] (first compound 0.002 µM, partner dose 0.16 µM)	89.3	98.1	82.9	90.5	64.3	121
